Laboratory results from PubChem BioAssay AID1508624 (National Center for Advancing Translational Sciences (NCATS), 2021).
About 120 (0.25%) of roughly 48,000 compounds were called active. Inconclusive results (about 4%) are left out. The call rests on the fitted dose curve; in most records, active means well fitted activation curve with a large enough effect; inconclusive means small, poorly fitted or top-dose-only effect, or another doubt; inactive means no such curve, though single readings can be large or run the other way. Some of the results follow.

Assay: Primary qHTS for Identification of Small Molecule Activators of Huntingtin-Antisense Promoter Activity; further: nearly all actives have a fitted effect of over 55% in size
Settings: HEK293 HTT-AS promoter firefly luciferase reporter, 24 h; series mostly up to 57.5 µM; activity change, positive = activation: at the top concentration
Procedure, shortened: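 Luminescence was read after Dual-Glo reagent and a 10 min room-temperature incubation. Values were normalized to vehicle (0% activity) and zero RLU (-100% activity). Reporter HEK293 cells had been exposed to compounds (up to 57.5 uM final) for 24 h.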

Activity change, positive = activation, inactive:
COc1ccccc1CNS(=O)(=O)c1ccc(-c2cc(C(F)(F)F)on2)s1 -30.1%, Cn1nc(-c2ccccc2F)c2cc(C(=O)NCc3ccc(Cl)cc3)sc21 -35.6%, COc1ccc(C2=C(C(C)=O)Sc3nnc(-c4ccc(C)cc4)n3N2C(C)=O)cc1OC -3.33%, COc1ccc(NC(=O)C(=O)NCCc2sc(-c3ccc(Cl)cc3)nc2C)cc1 11.2%, CCOC(=O)[C@H](CCc1ccccc1)N[C@@H](C)C(=O)N1C(=O)N(C)C[C@H]1C(=O)O -1.21%, CN1CCCN(C(c2ccccc2)c2ccc(Cl)cc2)CC1 (configuration not stated) -13.4%, CCOc1ccc(NC(=O)c2ccc3c(SCC(=O)O)c4c(nc3c2)CCC4)cc1 -7.88%, COc1ccc(OC)c(C2c3c(-c4ccc(Br)cc4)n[nH]c3C(=O)N2c2ccc(Cl)cc2)c1 (configuration not stated) -40.1%, C[C@@H]1C[C@H]2[C@@H]3CCC4=CC(=O)C=C[C@]4(C)[C@@]3(Cl)[C@@H](O)C[C@]2(C)[C@@]1(OC(=O)c1ccco1)C(=O)CCl, CCOC(=O)c1c(Nc2cccc(C(=O)OC)c2)nnc(-c2ccccc2)c1-c1ccccc1 -49.5%, COc1ccccc1C(=O)Nc1ccc(NC(=O)c2cccs2)cc1 -29%, CCOc1ccc(S(=O)(=O)NCC(c2ccco2)S(=O)(=O)c2ccc(C)cc2)cc1 (configuration not stated) -12.1%, COc1ccc(Nc2cc(C(=O)NCCCN(C)Cc3ccccc3)c3ccccc3n2)c(OC)c1 -12.4%, COc1ccccc1NC(=O)N1CCN(c2nnc(C)c3c(C)n(-c4ccc(Cl)cc4)nc23)CC1 2.66%, CCOC(=O)c1cnc2c(cnn2CC)c1NN=C(C)C 3.72%, CCOc1ccccc1NC(=O)COC(=O)c1cn(CC)c2nc(C)ccc2c1=O -19.6%, COc1cc(-c2nc3ccccn3c2Nc2ccccc2C)ccc1O -10.6%, O=C(Nc1cccc(C(F)(F)F)c1)N1CCC(CN2CCCCCC2)CC1 4.32%, CCc1ccc(CN2C(=O)c3ccccc3C2C(=O)NC2CCCCCC2)cc1 (configuration not stated) -22.4%, CCOc1ccc(-c2c(C)nn3c(C)c(C(=O)NCc4cccc(OC)c4)cnc23)cc1OCC -20.8%, CCc1ccccc1Nc1nn2c(=O)c3ccc(C(=O)NC4CCC(C)CC4)cc3nc2s1 (configuration not stated) -12.4%, CC(=O)Nc1ccc(S(=O)(=O)NCc2ccc3c(c2)CCN3C(C)=O)cc1 -10.8%, Cc1oc(-c2ccccc2)nc1Cn1c(SCc2cccc(C(F)(F)F)c2)nc2cccnc21 -33.9%, CCc1cnc2c(c1SCc1c(F)cccc1Cl)c(=O)n(C)c(=O)n2C -29.6%, CCOc1cc(C(=O)N(Cc2nc(-c3ccc(C)cc3)no2)C(C)C)cc(OCC)c1OCC -32.3%, COc1ccc(-n2ncc(C(=O)N3CCN(Cc4ccccc4)CC3)c2C2CCN(C(=O)OC(C)(C)C)CC2)cc1 -12.3%, CCOC(=O)c1ccc(NC(=O)CC2C(=O)N(c3ccccc3)C(=O)N2Cc2ccc(C)cc2)cc1 (configuration not stated) -15%, Cc1nn(C(=O)COc2ccc(Cl)cc2)c(C)c1Sc1ccccc1 17.5%, COc1ccc(CCNC(=O)CCCn2c(=O)c3ccccc3n(CC(=O)Nc3cccc(C)c3)c2=O)cc1OC -21.2%, CCOC(=O)c1c(NC(=O)c2ccc(S(=O)(=O)N3CCC(C)CC3)cc2)sc2c1CCN(C(C)C)C2 -18.4%, O=C(NCc1ccc(F)cc1)c1c2c(nc3ccccc13)C(=O)N(C1CCCCC1)C2 -11.6%, COc1ccc(OC)c(NC(=O)CCNS(=O)(=O)c2cccc3nsnc23)c1 -2.73%, CCOc1ccc2nc(S(N)(=O)=O)sc2c1 12.8%, CCc1ccc(NC(=O)CSc2nc3n[nH]c(C)c3c(=N)n2-c2ccc(C)cc2)cc1 -43.2%, O=C(Cc1ccc(NC(=O)N2CCCCc3ccccc32)cc1)NCc1ccccc1Br -17%, Cc1cccc(CCNC(=O)C2CCC(CNS(=O)(=O)c3c(C)cc(C)cc3C)CC2)c1 (configuration not stated) -24.3%, COc1cc(Cl)c(C)cc1NC(=O)Cn1cc(S(=O)(=O)N2CCN(c3ccccc3F)CC2)c2ccccc2c1=O -4.52%, N#Cc1ccc(OC(=O)c2cc(-c3ccc(Cl)cc3)on2)cc1 3.56%, O=C(CCC1N=C2c3ccccc3N=C(SCC(=O)Nc3ccccc3F)N2C1=O)NCc1ccco1 (configuration not stated) -0.0657%, Cc1cccc(NS(=O)(=O)c2ccc3[nH]c(=O)[nH]c3c2)c1C -18%, N[C@H](C(=O)O)c1ccc(O)cc1 -2.5% [at 25.1 µM, percent change from vehicle, -100% = no light], Cc1ccc(NC(=O)CN(C)S(=O)(=O)c2ccc3c(c2)n(C)c(=O)c(=O)n3C)c(C)c1 -10.5%, COc1ccc2c(c1)c1c(c(=O)n(Cc3ccccc3)c(=O)n1CC(=O)Nc1cc(C)cc(C)c1)n2C -14.1%, O=C(Nc1ccccc1OCc1cc(=O)n2ccccc2n1)c1cccc(Br)c1 0.301%, Cc1cc(C)cc(NC(=O)CSc2oc(-c3ccco3)nc2S(=O)(=O)c2ccccc2)c1 -18.8%, Cc1cccc(N2CCN(C(=O)c3ccc4c(c3)c(C)c(C)n4C)CC2)c1C -5.87%, CCOc1ccc(NC(=O)N2CCC(CN3CCCCCC3)CC2)cc1 -12.3%, Cc1ccc2c(n1)sc1c(=O)n(-c3cccc(C(F)(F)F)c3)nnc12 18.4%, Cc1ccc(Cl)cc1NC(=O)CCCn1c(=O)c2cccn2c2ccccc21 -26.3%, Clc1ccc(OCc2nc(-c3ccc(-n4cccc4)cc3)no2)cc1 -5.29% [at 11.5 µM, percent change from vehicle, -100% = no light], COc1ccc(-c2nc3scc(CCNS(=O)(=O)c4cc(F)ccc4OC)n3n2)cc1OC -12.8%, Cc1ccc(CCNC(=O)CCCn2c(=O)c3ccccc3n(CC(=O)Nc3cc(Cl)ccc3C)c2=O)cc1 -0.102%, CC(=O)N1CCc2c(sc3nc(SCC(N)=O)n(-c4ccc(F)c(Cl)c4)c(=O)c23)C1 -15.5%, Cc1ccc(CN2CCSc3ccc(C(=O)Nc4cc(C)cc(C)c4)cc32)cc1 0.248%, CN(C(=O)CSc1nnc(-c2ccc([N+](=O)[O-])cc2)o1)C1CCCCC1 0.225%, CC(=O)N1c2ccc(S(=O)(=O)N3CCCCCC3)cc2CC1C(=O)NCc1ccccc1 (configuration not stated) -1.2%, COc1cc2ncnc(Nc3cccc(Cl)c3)c2cc1OC -12.2%, COCCn1c(C)cc(O)c(C(c2ccccc2)N2CCN(CCO)CC2)c1=O (configuration not stated) 7.92%, COc1cc2c(cc1OC)C(COc1ccc3c(C)cc(=O)oc3c1)N(C(=O)c1cccc(OC)c1OC)CC2 (configuration not stated) -15.6%, NNc1nnc(NN)c2ccccc12 10%, C=CCc1c(C)nc2nc(SCC(=O)Nc3cccc(Cl)c3)nn2c1C -29.7%, CC(C)CN(CC(C)C)c1nc(-c2ccc(Cl)cc2)nc2ccccc12 -6.73%, CO/N=C(/C(=O)N[C@@H]1C(=O)N2C(C(=O)O)=C(Cn3nnc(C)n3)CS[C@H]12)c1csc(N)n1 -6.26%, Cc1c(Cl)cccc1NC(=O)c1ccc2c(c1)nnn2C1CCCC1 -14.7%, CCOC(=O)c1c(C)oc2nc(C)nc(N(CC(C)C)CC(C)C)c12 -35.3%, O=C(Nc1ccccc1C(=O)OCc1cc(=O)n2c3c(sc2n1)CCCC3)c1ccccc1 -23.7%, O=C(CCS(=O)(=O)c1ccccc1)N(Cc1cccnc1)c1nc2c(Cl)cccc2s1 -6.61%, O=C(NCCCN1CCN(c2ccc(F)cc2)CC1)C1COc2ccccc2C1 (configuration not stated) -21.5%, CCc1ccc(NC(=O)c2ccc3c(=O)n4nc(Nc5ccccc5C)sc4nc3c2)cc1 -55.7%, COc1ccc(Cl)cc1NC(=O)Cn1c(=O)n(Cc2nc(C)no2)c(=O)c2ccccc21 -18.7%, Clc1ccc(Nc2c(-c3cccs3)nc3ccc(Cl)cn23)cc1 10.2%, COc1ccc(CCNC(=O)Cn2c(=O)cc(C(F)(F)F)c3c(C)nn(C)c32)cc1OC -19.6%, CCc1cccc(NC(=O)c2cc3c(=O)[nH]c4ccccc4c3n2C)c1 -8.4%, Cc1ccc(C)c(CSC2=NC(C)(C)Nc3ccccc32)c1 -14%, CCOC(=O)c1sc2nc(C)n(CC(=O)Nc3cccc(Cl)c3)c(=O)c2c1C -7.58%, CC(=O)c1cccc(NC(=O)CSc2nnc3ccc(-c4ccc(Cl)cc4)nn23)c1 -19.9%, COc1ccc(CN(C)S(=O)(=O)c2nnc(NC(=O)C(C)C)s2)cc1OC -41.9%, O=C(O)c1ccccc1O -0.422%, COc1ccccc1NC(=O)C1=C(C)Nc2nc(SCc3ccccc3F)nn2C1c1cccnc1 (configuration not stated) -11.5%, Cc1ccc(Cl)cc1NC(=O)c1sc2nc(-c3ccccc3)cn2c1C 4.35%, CCOc1ccc(NC(=O)c2cc(=O)c3cc(CC)ccc3o2)cc1 13.9% [at 11.5 µM, percent change from vehicle, -100% = no light], Cc1cccc(NC(=O)CSc2nc(=O)n(Cc3ccncc3)c3c2CCC3)c1C -11.6%, Cc1ccc(-c2noc(-c3ccccc3NC(=O)C3CC(=O)N(c4cccc(C)c4)C3)n2)cc1 (configuration not stated) 22.7%, CCc1ccc(C2=C(C)C(N3CCC(C(=O)Nc4cccc(OC)c4)CC3)=NS2(=O)=O)cc1 -22.5%, Oc1ccc(/C=C/c2nc(-c3ccccc3O)n(-c3ccccc3)n2)c(O)c1 -17%, CCOC(=O)c1cccc(NS(=O)(=O)c2cc(-c3cnc(C)o3)ccc2OC)c1 -28.4%, CCCOc1ccc(C2C(=O)N(C3CCCCC3)CC(=O)N2CCc2ccccc2)cc1OC (configuration not stated) -8.37%, CN(C)C(=O)c1ccc(NC(=O)Cn2nc(-c3ccccc3)c3ccccc3c2=O)cc1 -2.85%, CCOC(=O)c1c(NC(=O)COc2cc(C)ccc2C(C)C)sc2c1CCCC2 -4.68%, CCCCNC(=O)C(CC)Sc1nnc(-c2ccc(F)cc2)c(-c2ccc(F)cc2)n1 (configuration not stated) -3.19%, Cc1cccc(NC(=O)c2c(NC(=O)c3cccs3)sc3c2CCC(C)C3)c1 (configuration not stated) 6.32%, COc1ccccc1N1CCN(C(CNC(=O)C(=O)NCCN(C)C)c2cccnc2)CC1 (configuration not stated) -4.84%
